The record followed here is paper PMC4336329 (PLoS ONE, 2015).

Among all 310,000 compounds or so, about 14,000 (4.5%) showed an effect of 50% or more. The effect is printed as a negative number. The list shows a part of the results.
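Also: peak tail current of the secondary pulse compared with the same well before compound.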

The target of the experiment is human ether-à-go-go-related gene (hERG) potassium channel (human, UniProt Q12809). The experiment in a line: primary screen, population patch clamp on CHO cells stably expressing hERG.
Sequence of human ether-à-go-go-related gene (hERG) potassium channel (Q12809 whole entry, looked up): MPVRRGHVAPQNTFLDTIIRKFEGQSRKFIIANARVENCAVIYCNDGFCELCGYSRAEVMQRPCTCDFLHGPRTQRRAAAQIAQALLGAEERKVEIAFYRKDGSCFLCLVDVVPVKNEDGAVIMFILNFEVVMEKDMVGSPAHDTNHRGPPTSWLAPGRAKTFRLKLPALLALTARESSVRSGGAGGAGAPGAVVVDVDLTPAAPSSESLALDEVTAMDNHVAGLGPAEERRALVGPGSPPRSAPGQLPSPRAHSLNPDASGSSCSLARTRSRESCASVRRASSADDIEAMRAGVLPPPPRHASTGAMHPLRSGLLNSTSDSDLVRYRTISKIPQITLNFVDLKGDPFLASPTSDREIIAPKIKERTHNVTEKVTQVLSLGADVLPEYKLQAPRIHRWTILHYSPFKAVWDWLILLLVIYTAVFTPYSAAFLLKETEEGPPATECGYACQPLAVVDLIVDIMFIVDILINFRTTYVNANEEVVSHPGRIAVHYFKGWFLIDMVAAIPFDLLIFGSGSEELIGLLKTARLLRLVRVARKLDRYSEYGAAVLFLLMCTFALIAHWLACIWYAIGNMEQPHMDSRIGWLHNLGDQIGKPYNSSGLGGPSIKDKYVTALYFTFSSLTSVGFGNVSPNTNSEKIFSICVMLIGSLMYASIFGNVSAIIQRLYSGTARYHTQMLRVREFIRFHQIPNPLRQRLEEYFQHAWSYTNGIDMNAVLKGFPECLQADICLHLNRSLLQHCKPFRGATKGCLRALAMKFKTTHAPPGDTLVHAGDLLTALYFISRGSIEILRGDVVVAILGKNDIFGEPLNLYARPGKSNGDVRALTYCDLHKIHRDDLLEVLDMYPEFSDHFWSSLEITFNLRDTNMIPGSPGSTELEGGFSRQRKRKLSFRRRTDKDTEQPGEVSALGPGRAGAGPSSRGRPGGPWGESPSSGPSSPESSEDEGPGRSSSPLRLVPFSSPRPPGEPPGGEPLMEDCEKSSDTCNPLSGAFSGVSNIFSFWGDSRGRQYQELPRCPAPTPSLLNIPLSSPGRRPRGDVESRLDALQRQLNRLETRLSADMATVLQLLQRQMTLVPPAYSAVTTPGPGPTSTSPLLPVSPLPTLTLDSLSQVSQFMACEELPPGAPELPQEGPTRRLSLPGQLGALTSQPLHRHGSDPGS
Consider `Cc1cc(C=O)c(C)n1-c1ccc(N2CCOCC2)cc1`, for which the “hERG current change (%, negative = inhibition) at 10uM” value is listed as -10.8%.

On to `CCCCNC(=O)COC(=O)c1ccc(NC(C)=O)cc1`, for which the “hERG current change (%, negative = inhibition) at 10uM” value worked out at 15.5%.

Turning to `CCN(CC(=O)Nc1ccc2c(c1)OCCO2)C(=O)/C=C/c1ccc(F)cc1`, the “hERG current change (%, negative = inhibition) at 10uM” value is on record as -7.2%.

Turning to `Cc1cc(C(=O)NNC(=O)c2ccc(C)s2)c(C)o1`, the “hERG current change (%, negative = inhibition) at 10uM” value was determined as 3.91%.

Regarding `Cc1ccc(Cn2c(-c3nonc3N)nc3ccccc32)cc1`, the “hERG current change (%, negative = inhibition) at 10uM” value stood at 3.95%.

On to `O=C(O)C1CCC1C(=O)Nc1nc(-c2ccc(Cl)s2)cs1` (stereo not drawn), for which the “hERG current change (%, negative = inhibition) at 10uM” value is 15.3%.

Consider `COc1cc(Br)c(Br)cc1N`, for which the “hERG current change (%, negative = inhibition) at 10uM” value was found to be 7.73%.

As for `Cc1ccc(C(=O)Nc2nc(=O)n(C)s2)cc1`, the “hERG current change (%, negative = inhibition) at 10uM” value is 19.4%.

In the case of `CCOC(=O)C1CCN(S(=O)(=O)c2cccc(-c3cn4ccccc4n3)c2)CC1`, the “hERG current change (%, negative = inhibition) at 10uM” value was -60.4%.

With `COc1ccc(NS(=O)(=O)c2cc(-c3cnc(C4CC4)o3)ccc2C)cc1`, the “hERG current change (%, negative = inhibition) at 10uM” value is 6.02%.

In the case of `CCCn1c2ccccc2c2cnn(CC(=O)NC3CCCC(C)C3C)c(=O)c21` (stereo not drawn), the “hERG current change (%, negative = inhibition) at 10uM” value is given as -0.0339%.

For `COc1ccc(CCNC(=O)c2ccc(CNS(=O)(=O)c3ccccc3)cc2)cc1OC`, the “hERG current change (%, negative = inhibition) at 10uM” value was -11.1%.

On to `C=CCCCCCCCCC(=O)Nc1ncccn1`, for which the “hERG current change (%, negative = inhibition) at 10uM” value was 6.59%.

`Cc1cc(O)c(Sc2ccc(Cl)cc2)c(=O)[nH]1`: the “hERG current change (%, negative = inhibition) at 10uM” value came out at 12.1%.

Turning to `C=CCNC(=O)C1=NN(c2c(F)c(F)cc(F)c2F)C(=O)CC1`, the “hERG current change (%, negative = inhibition) at 10uM” value is given as 47.5%.

Regarding `NC(=O)C1CCN(C(=O)CN2CCc3ccccc32)CC1`, the “hERG current change (%, negative = inhibition) at 10uM” value was -9.54%.

In the case of `Cc1ccccc1OCCCSc1nc2ccccc2[nH]1`, the “hERG current change (%, negative = inhibition) at 10uM” value is 11.5%.

As to `Cc1ccc(C(=O)C2=C(O)C(=O)N(c3ncccn3)C2c2ccc(Cl)cc2)o1` (stereo not drawn), the “hERG current change (%, negative = inhibition) at 10uM” value was determined as 2.43%.

Turning to `Cc1cc(Cl)ccc1NC(=S)NCC(O)c1ccccc1` (stereo not drawn), the “hERG current change (%, negative = inhibition) at 10uM” value amounted to 2.79%.

Turning to `COc1ccc(N2CCN(C(=O)c3cn(C)c4ccc(S(=O)(=O)N5CCOCC5)cc4c3=O)CC2)cc1`, the “hERG current change (%, negative = inhibition) at 10uM” value was determined as 11.5%.

In the case of `O=C(C1CCCO1)N1CCN(C(=S)Nc2ccc(Cl)cc2Cl)CC1` (stereo not drawn), the “hERG current change (%, negative = inhibition) at 10uM” value is -9.7%.

For `COc1cc(OC)cc(C(=O)NCC2CCCN(C(=O)c3oc(C)cc3C)C2)c1` (stereo not drawn), the “hERG current change (%, negative = inhibition) at 10uM” value is -18.5%.

As for `O=S(=O)(Nc1ccc(-c2nc3ccccc3o2)cc1)c1ccccc1`, the “hERG current change (%, negative = inhibition) at 10uM” value is on record as 0.304%.

Turning to `CC(C)NC(=O)C1CCN(C2CCN(C(=O)c3ccc4cccc(F)c4n3)CC2)CC1`, the “hERG current change (%, negative = inhibition) at 10uM” value stood at 1.93%.

`Cc1cc(C)cc(CC2CC(=O)N(c3cc(C)ccc3C)C2=O)c1` (stereo not drawn): the “hERG current change (%, negative = inhibition) at 10uM” value was found to be 9.28%.

In the case of `CCOc1ccc(N(CC(=O)Nc2ccc(OC)cc2OC)S(=O)(=O)c2c(C)[nH]c(=O)[nH]c2=O)cc1`, the “hERG current change (%, negative = inhibition) at 10uM” value was determined as 23.1%.

In the case of `CCC(Oc1ccccc1)C(=O)O/N=C(\N)c1ccc(OC)c(OC)c1` (stereo not drawn), the “hERG current change (%, negative = inhibition) at 10uM” value amounted to 2.28%.

Consider `CCc1ccccc1N(CC(=O)N1CCCCCC1)S(C)(=O)=O`, for which the “hERG current change (%, negative = inhibition) at 10uM” value is listed as 20.7%.

As to `O=C(N/N=C/c1sc(N2CCOCC2)nc1-c1ccccc1)c1ccccc1F`, the “hERG current change (%, negative = inhibition) at 10uM” value is reported as 10.4%.

Regarding `CCOc1ccc(S(=O)(=O)N2CCCC(C(=O)NCc3ccncc3)C2)cc1` (stereo not drawn), the “hERG current change (%, negative = inhibition) at 10uM” value was -15%.

On to `CCc1cc(=O)oc2c(C)c(O[C@@H]3O[C@H](CO)[C@@H](O)[C@H](O)[C@H]3O)ccc12`, for which the “hERG current change (%, negative = inhibition) at 10uM” value is 9.49%.

`O=C(c1cccs1)N1CCN(c2ncc(C(F)(F)F)cc2Cl)CC1`: the “hERG current change (%, negative = inhibition) at 10uM” value is recorded as -65%.

Consider `CCOc1ccc(/C(O)=C2/C(=O)C(=O)N(c3ccccn3)C2c2ccc(C)cc2)c(C)c1` (stereo not drawn), for which the “hERG current change (%, negative = inhibition) at 10uM” value turned out to be 10.2%.

`Cc1ccccc1N1CCN(C(=O)NCc2cccc(Cl)c2)CC1`: the “hERG current change (%, negative = inhibition) at 10uM” value stood at 10%.

In the case of `CC(=O)N1CCN(C(=O)c2cccc(S(=O)(=O)N3CCN(c4ccccc4)CC3)c2)CC1`, the “hERG current change (%, negative = inhibition) at 10uM” value is listed as -16.5%.

For `O=c1[nH]nc(-c2ccc(F)cc2)cc1-c1ccccc1`, the “hERG current change (%, negative = inhibition) at 10uM” value is recorded as 15.1%.

With `C(=C\c1ccccc1)/CSc1nnc(-c2cccnc2)n1Cc1ccco1`, the “hERG current change (%, negative = inhibition) at 10uM” value was -70.8%.

For `CC1(C)C(=O)C2(CCCCC2)C(=O)OC1C(=O)c1ccccc1` (stereo not drawn), the “hERG current change (%, negative = inhibition) at 10uM” value was -12.3%.

Regarding `Cc1cc2nc(C)c(Cc3ccccc3)c(=O)n2[nH]1`, the “hERG current change (%, negative = inhibition) at 10uM” value is 9.91%.

For the molecule `O=C(CCNC(=O)c1ccc([N+](=O)[O-])cc1)NCCC1=CCCCC1`, the “hERG current change (%, negative = inhibition) at 10uM” value was -21.3%.

For `Cc1ccc(CN2CCCN(Cc3c(C)cc(C)cc3C)S2(=O)=O)cc1`, the “hERG current change (%, negative = inhibition) at 10uM” value was found to be 19.8%.

For `Clc1ccc2c(c1)C(N1CCNCC1)=Nc1ccccc1O2`, the “hERG current change (%, negative = inhibition) at 10uM” value was determined as 0.229%.

Turning to `Nc1ccn([C@H]2C[C@H](O)[C@@H](CO)O2)c(=O)n1.O`, the “hERG current change (%, negative = inhibition) at 10uM” value was 8.46%.

As for `COc1ccc(C)cc1NC(=O)CCN1CCN(C/C=C/c2ccccc2)CC1`, the “hERG current change (%, negative = inhibition) at 10uM” value is -77.1%.

In the case of `CCCc1nnc(NC(=O)NCCN2C(=O)C3C4C=CC(C4)C3C2=O)s1` (stereo not drawn), the “hERG current change (%, negative = inhibition) at 10uM” value was found to be 7.25%.
